# From ChEMBL document CHEMBL4888484, “Replenishing the malaria drug discovery pipeline: Screening and hit evaluation of the MMV Hit Generation Library 1 (HGL1) against asexual blood stage Plasmodium falciparum ,using a nano luciferase reporter read-out” (2022)
# Hit rate of the full screen: of about 150,000 compounds, about 540 (0.36%) showed an effect of 50% or more. This is one part of the list.
# Tested on: Plasmodium falciparum
# Test: Primary screen in NF54 nanoGlo assay, in single point, at 2uM, 72h; a lower Z score goes with more inhibition
# Type: functional, Erythrocyte
# Conditions: timepoint 72 hour
SMILES,% Inhibition,Z score
O=S(=O)(Cc1ccc(Cl)cc1)N1CCC[C@H](Oc2ccncn2)C1,8%,-1.11
CCOc1ccc(CNC(=O)C2=CCN(Cc3ccc(F)cc3)CC2)cc1,-8%,1.51
CS(=O)(=O)c1cccc(S(=O)(=O)N(Cc2ccc(F)cc2)C2CCCCC2)c1,0%,-0.01
O=C(NCc1cccs1)N1CCN(C(=O)c2cnn3ccccc23)CC1,-9%,1.37
Cc1noc(C)c1CC(=O)Nc1ncnc2[nH]c(C)c(C)c12,-17%,1.6
CCCc1nnc(C(=O)Nc2ccc(C(=O)NC3CCCCC3)cc2)s1,-19%,2.27
CN(C)[C@H]1CN(C2Cc3ccccc3C2)C[C@@H]1O,1%,-0.19
N#C[C@@H](C(=O)c1ccccc1C(=O)c1ccc(F)cc1)c1ccccn1,-12%,1.09
Cc1csc(CNC(=O)c2cc(C)oc2C)n1,-10%,0.98
Cc1cc2c(cc1C)C(C(=O)N1CC(O)C3(CC3)C1)CO2 (configuration not stated),-3%,0.6
O=C(NCCn1cccn1)[C@@H]1CCCCc2n[nH]c(=O)n21,-12%,1.16
Cc1ncc(-c2nc(-c3ccccc3Br)no2)c(C)n1,0%,-0.03
CCO[C@H]1CN(CCC(=O)N2CCc3ccccc3C2)C[C@@H]1O,-11%,1.71
O=C(O)CN(Cc1ccccc1)C(=O)C1CC=CC1,-9%,1.35
COc1cc(Cc2ncnn2-c2ccc(F)cc2)cc(OC)c1OC,-13%,1.63
C[C@H](NCc1cc(F)cc(F)c1)c1cccc(O)c1,7%,-0.75
CCOc1cc(CNC2CCCC2)cc(Br)c1OCc1ccccc1,2%,-0.21
C[C@H](OC(=O)c1ccnc(N(C)C)c1)C(=O)N1CCc2ccccc21,1%,-0.17
O=C(O)c1nn(-c2ccc(Br)cc2)c2c1CNCC2,-4%,0.54
Cc1cc(CNC(=O)[C@H]2CCOC2)c(C)o1,-9%,1.69
O=C(NCCN1CCCC1)c1nc(Cc2ccccc2)n(-c2ccccc2)n1,0%,-0.06
O=C(NCc1ccccc1F)N1C[C@H]2CC[C@@H](C1)[C@H]2O,-3%,0.4

SMILES,% Inhibition,Z score
CCC(=O)N(CC(=O)N(Cc1ccc(F)cc1)Cc1ccc(C)s1)C(C)C,11%,-1.34
CN(C(=O)Nc1ccc(C2CCC2)cc1)[C@H]1C[C@@H](C(N)=O)C1,-5%,0.62
CCNC(=O)c1nc(Cn2cnc3ccccc3c2=O)no1,8%,-1.08
CCOc1ncccc1-c1ccc(OC[C@H]2C[C@@H]2C(=O)O)cc1,12%,-1.53
Cc1cccc(OCc2nc3ccccc3n2CC(=O)Nc2ccccc2)c1,4%,-0.65
CCN(Cc1nc(N)nc(Nc2ccccc2C)n1)C[C@H]1COc2ccccc2O1,-8%,1.23
CC(C)c1cnc(N(C)CC(C)(C)CO)nc1,-4%,0.78
c1cnc(-c2noc(-c3cc4c(s3)CCOC4)n2)cn1,-3%,0.37
Cc1ccc(Nc2ccn3c(=O)n(CC(=O)Nc4cc(F)cc(F)c4)nc3n2)cc1,-16%,1.7
CC(C)(C)OC(=O)N1CCC(Cc2cc(C(=O)O)no2)CC1,-5%,0.76
CC1CC(Nc2ccc3c(c2)OCCO3)CN1Cc1ccccc1 (configuration not stated),-4%,0.81
CC(C)(CNC(=O)N1CCC[C@@](O)(C(F)(F)F)CC1)C1=CCCC1,0%,0.04
Cc1nnc(N2CC(C)OC(C)C2)c(C#N)c1C (configuration not stated),-1%,0.16
Cc1ccc(NC(=O)COc2ccc(N3C[C@@H](C(=O)NCc4ccccc4)CC3=O)cc2)cc1,25%,-2.84
Cc1noc(C)c1CCc1nc(CC(N)=O)n[nH]1,3%,-0.64
CCC(CC)CS(=O)(=O)NC(=O)CCc1ccco1,-12%,1.54
NC(=O)[C@@H]1C[C@@H](F)CN1C(=O)COCc1ccccc1,6%,-0.76
CC(CC(=O)N1CCN(C(=O)C(N)C(C)C)CC1C)CC(C)(C)C (configuration not stated),-8%,1.45
CC(C)CCNC(=O)C1CN(C(=O)Cc2ccccc2)CC1c1cccc(F)c1 (configuration not stated),-7%,1.24
CC(C)[C@]1(C)NC(=O)N(Cc2nnc(C3CC3)n2C)C1=O,-5%,0.45
CC1CN(C(=O)c2cncc(F)c2)CC[S+]([O-])C1 (configuration not stated),-14%,1.56
O=C(Nc1ccc(Cl)cc1)c1c2c(nc3ccccc13)-c1ccccc1C2,2%,-0.31

SMILES,% Inhibition,Z score
CC(C)[C@H](C)N(C(=O)Cn1nnc2ccccc21)C1CC1,-9%,1.39
CC(C)=CCO[C@H]1COCC[C@@H]1NC(=O)c1cccc(N(C)C)c1,-12%,1.16
C[C@H]1C(=O)N(c2ccc(Cl)cc2)CCN1C(=O)c1ccco1,-4%,0.53
CCc1nnc2c(NC(=O)c3ccc(C)s3)cccn12,-9%,1.31
COC[C@@H]1CN(c2ccncn2)C[C@H]1C(=O)NC(C)C,-6%,0.96
CC(C)Cc1ncc2c(n1)CN(c1nccc(N3CCC(O)CC3)n1)C2,-5%,0.67
CCN(CC)CCNC(=O)COc1ccc2c(c1)OC1(CCCCC1)CC2=O,-14%,1.49
Cc1ccc(OC[C@@H](O)CN2CCc3c(cccc3N3CCOC3=O)C2)c(C)c1,-12%,1.43
COC1CC2C(=O)N(C3CCN(c4cccc(C)n4)CC3)C(=O)N2C1 (configuration not stated),-9%,1.54
CCc1nnc(-c2nnc(NCCCN3CCC(C)CC3)c3ccccc23)o1,11%,-1.27
O=C(O[C@H]1CCOC1)c1cccc(-c2noc(C3CC3)n2)c1,-2%,0.3
CNC(=O)NC(=O)[C@H](C)Nc1cccc(COC(C)C)c1,-8%,0.94
NC(=O)[C@@H]1CCCN1Cc1csnn1,26%,-2.99
COc1ccc2c(c1)[C@]1(CC2)NC(=O)N(Cc2snnc2C)C1=O,14%,-1.62
Cc1nc(C2(NC(=O)Nc3nc(C4CC4)cs3)CCCCCC2)no1,-7%,1.32
Oc1cc(C(F)(F)F)c2cc3c(cc2n1)OCO3,30%,-3.35
Cn1cc(C2CC2C(=O)N2CCN(C3CCCC3O)CC2)cn1 (configuration not stated),-4%,0.37
Cc1ccccc1[C@@]1(CC(=O)N(CCO)C(C)C)CC(=O)N(Cc2cccnc2)C1=O,-4%,0.45
CNC(=O)c1ccc(NC(=O)N2CCC3(CCCCC3)CC2)c(OC)c1,4%,-0.62
Nc1nnc([C@@H]2Cc3ccccc3O2)o1,-15%,1.42
C[C@@H](Cn1cnc(-c2ccccc2)c1C1CC1)Oc1cccnc1,-8%,1.64
CCC1CC(CC(=O)NC2(C#N)CCc3ccccc3C2)CCO1 (configuration not stated),1%,-0.27

SMILES,% Inhibition,Z score
CCC=C(C)C(=O)Nc1ccc(OC)nc1,-7%,1.14
COc1ccc(Br)c(-c2nnn(CC3(O)CCC3)n2)c1,-13%,2.38
CC(C)(NS(=O)(=O)C1CN(C(=O)C2CCCC2)C1)c1cccs1,-5%,0.52
O=C(CN1CCN(CC(=O)NC2CC2)CC1)Nc1cc(-c2ccc3c(c2)CCC3)nn1-c1ccccc1,-29%,3.41
Cc1noc(-c2csc(C(=O)NC(C)C)n2)n1,-14%,2.09
Cc1noc(-c2cccnc2N[C@@H](C)CN2CCOCC2)n1,5%,-0.52
O=C1CCCN1CCC1CN(C(=O)[C@@H]2CCCCN2)c2ccccc21 (some centres not stated),-15%,1.8
Cc1nc(N[C@H]2CCN(C)C(=O)C2)c2cc(-c3ccccc3)sc2n1,-12%,2.15
CC(=O)Nc1cc2nc3[nH]c(=O)[nH]c(=O)c3nc2cc1C,1%,-0.13
C=CCC(C)NC(=O)NC(C)C1CCOCC1 (configuration not stated),1%,-0.16
O=C(c1cccc2c1NCCC2)N1CCC2(CC1)C(=O)Nc1ccccc12,11%,-1.5
O=C1N(C2CCCC2)CCC[C@@]12CCN(Cc1c[nH]cn1)C2,-10%,1.78
Cc1nc(CC(=O)N2C[C@@H]3CC[C@H]2CN(C(=O)c2cccnc2)C3)cs1,-6%,0.79
O=C(c1ncoc1-c1ccon1)N1CCc2nc[nH]c2C1,0%,-0.06
CN(C)CCN(C(=O)c1cc2c(s1)CCCCC2)c1ccccc1,0%,0.06
Cc1cc(O)cc(=O)n1CCC(=O)Nc1ccc2c(c1)OCCCO2,-7%,0.93
Cc1ncncc1C(=O)NC[C@H](C)c1ccc(Br)cc1,-2%,0.28
O=S(=O)(c1ccccc1Cl)N1CCC2(CC1)CC2(F)F,17%,-2.17
Cc1ccc(NC(=O)CC(C)(C)CC2=Nc3ccccc3S(=O)(=O)N2)cc1F,32%,-4.09
Cc1nc2ccccc2c(=O)n1N(c1ccccc1)c1ccccc1,-4%,0.56
